“And” between values parts separate entries of the source, which are not always exact repeats. Identical values can stand only once. Out of some 310,000 compounds screened, about 18,000 (5.8%) were called active. This list was built around the results that the source calls inconclusive (neither active nor inactive); the mix of calls is not that of the screen. Calls follow the shape of the dose curve; as a rule, active = well fitted inhibition curve with a large enough effect; inconclusive = small, poorly fitted or top-dose-only effect, or another doubt; inactive = no such curve, though single readings can be large or run the other way. Potencies beside an inconclusive call are fits to weak or partial responses and may not hold up.
Assay: Primary qHTS for delayed death inhibitors of the malarial parasite plastid, 48 hour incubation
Conditions: P. falciparum luciferase growth in erythrocytes; series mostly up to 28.7 µM; activity change, negative = inhibition: at the top concentration
Outline: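 Luminescence readout; reporter = integrated firefly luciferase in P. falciparum. RBC culture at 2% hematocrit, 0.1% parasitemia final, 37 C/5% CO2; decreased signal taken as growth inhibition.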
% is scaled to controls: 0 for no effect and ±100 for the full control effect; potency is read from the fitted curve at half-maximal effect; tags tell the direction and shape of the fitted curve.

SMILES	activity change, negative = inhibition	Potency
Cc1ccc(C(=O)Nc2c3c(nn2-c2ccccc2)CS(=O)(=O)C3)cc1C	inactive: -3.95%	
COc1cc(C(=O)OCCCN2CCCN(CCCOC(=O)c3cc(OC)c(OC)c(OC)c3)CC2)cc(OC)c1OC		active: 9.53 µM
CC(C(=O)N(C)Cc1cccc(F)c1)N1CCN(S(=O)(=O)c2ccc3c(c2)OCCCO3)CC1 (stereo not given)		inconclusive: 13.1 µM [inhibitor, single point]
Nc1ccc(-c2nc3ncccc3o2)c(Cl)c1	inactive: 40.2%	
CC(/C=C/c1ccccc1)=N\NC(=O)C1CC1(C)c1ccccc1 (stereo not given)		active: 11.7 µM
COC(=O)C1=C(C)NC(C)=C([N+](=O)[O-])C1c1ccccc1C(F)(F)F (stereo not given)		inconclusive: 14.7 µM [inhibitor, partial curve] and inconclusive: 10.4 µM [inhibitor, partial curve]
COc1cccc2sc(NNC(=O)COc3ccccc3)nc12	inactive: -6.47%	
CCCN1C2CCCC1CC(NC(=S)Nc1cc(C)cc(C)c1)C2 (stereo not given)		inconclusive: 10.4 µM [inhibitor, single point]
O=c1c2sc3ccccc3c2[nH]c(=S)n1CCN1CCOCC1	inactive: 10.5%	
Cc1cccc(C)c1OCC(=O)N1CC2(C)CC1CC(C)(C)C2 (stereo not given)		inconclusive: 11.7 µM [inhibitor, single point]
COc1cc(CN2CCNC(=O)C2CC(=O)N2CCc3ccccc3C2)cc(OC)c1 (stereo not given)	inactive: 13.3%	
Cn1cc(C(=O)NCC2COc3ccccc3O2)c(=O)c2cc(S(=O)(=O)N3CCCCC3)ccc21 (stereo not given)		active: 11.7 µM
COCCN(C(=O)c1snc(C(N)=O)c1N)C(C(=O)NC1CCCC1)c1cc(OC)c(OC)c(OC)c1 (stereo not given)	inactive: -5.74%	
Cc1cc(C)c(S(=O)(=O)N(C)CC(=O)NC2CCCC2)c(C)c1		inconclusive: 18.5 µM [inhibitor, single point]
C/C(CCc1oc2c(Br)cc(Br)cc2c1-c1ccc(C)o1)=N\O		inconclusive: 18.5 µM [inhibitor, single point]
CCN(CC)S(=O)(=O)c1ccc2c(c1)oc(=O)n2CC(=O)N(C)C1CCCCC1		inconclusive: 10.4 µM [inhibitor, single point]
O=C(NC1CCCC1)C(c1ccc(Cl)cc1)N1CCN(C2CCCCC2)CC1 (stereo not given)		inconclusive: 18.5 µM [inhibitor, single point]
N=C1c2ccccc2CN1c1cccc([N+](=O)[O-])c1	inactive: 6.76%	
Cc1cc(C)c(S(=O)(=O)c2ccccc2)c(N(C)C)n1		inconclusive: 1.47 µM [inhibitor, full curve, poor fit]
Cc1ccc(C(C)(C)c2ccc(C)cc2)cc1	inactive: 4.84%	
Cc1sc(NC(=O)C2CCCC2)c(C#N)c1C	inactive: 32.8%	
CN(C)c1ccc(NC(=O)CSc2nc3ccccc3c(=O)n2C2CCCCC2)cc1		inconclusive: 13.1 µM [inhibitor, partial curve]
CCN1CCCC1CNC(=O)c1cc2c(=O)n(C)c3ccccc3c2n1C (stereo not given)		inconclusive: 18.5 µM [inhibitor, single point]
Cc1cc(C(F)(F)F)nc(NCc2cccnc2)n1		inconclusive: 13.1 µM [inhibitor, single point]

SMILES	activity change, negative = inhibition	Potency
N#Cc1c2n(c(=S)n(-c3ccc(F)cc3)c1=O)CCCCC2		inconclusive: 6.57 µM [inhibitor, partial curve, poor fit]
Cc1ccc(NC(=O)COc2ccc3c(c2)CCC3)nc1	inactive: 87.6%	
Cn1c(-c2ccccc2)cnc1SCC(=O)N1CCCc2ccccc21	inactive: 24.1%	
Cn1c(/C=N/NC(=O)c2ccccc2Br)nc2ccccc21		inconclusive: 18.5 µM [inhibitor, single point]
CCCCN(CCCC)CCCN1CC(=O)N2[C@@H](Cc3c([nH]c4ccccc34)C2(C)C)C1=O		active: 9.28 µM
COc1ccc(CN(Cc2nc3ccccc3c(=O)[nH]2)C(=O)C(C)(C)C)cc1		inconclusive: 5.86 µM [inhibitor, partial curve]
CC(=O)c1ccc(Sc2ccc(C(C)=O)cc2)cc1	inactive: 47.4%	
CC(C)CCNC(=O)C(c1ccc(O)cc1)N(Cc1ccco1)C(=O)CCC(=O)Nc1nccs1 (stereo not given)		inconclusive: 13.1 µM [inhibitor, single point]
CC1CCN(C(=O)CSc2ccc(-c3cccnc3)nn2)CC1	inactive: -3.76%	
CCOC(=O)COc1cccc2c(=O)n(CC(=O)NCc3ccccc3)ccc12	inactive: 19.5%	
COCCNC(=S)N(CCc1c(C)[nH]c2ccc(F)cc12)Cc1cccnc1		inconclusive: 14.7 µM [inhibitor, single point]
C=CCN1C=C2C(=O)C(C)(OC(=O)c3cccs3)C(=O)C=C2C=C1CCCC(=O)OC (stereo not given)		inconclusive: 11.7 µM [inhibitor, partial curve, poor fit]
CC(=O)Nc1cccc(NC(=O)c2ccc3c(c2)CCN3S(=O)(=O)c2ccccc2)c1		inconclusive: 10.4 µM [inhibitor, partial curve]
O=C1C2CC=C(Cl)CC2C(=O)N1CCc1c[nH]c2ccccc12 (stereo not given)		inconclusive: 18.5 µM [inhibitor, single point]
Cc1ccc(CNC(=O)C2(C(F)(F)F)C/C(=C\Cc3ccccc3)CCCO2)o1 (stereo not given)		inconclusive: 18.5 µM [inhibitor, single point]
CCOC(=O)N1CCN(C(=O)CSCC(=O)Nc2nc(-c3ccc(C)cc3)cs2)CC1		inconclusive: 9.28 µM [inhibitor, single point]
CCn1c2ccccc2c2cc(C3C(C#N)=C(N)OC4=C3C(=O)CC(C)(C)C4)ccc21 (stereo not given)	inactive: 27.8%	
COc1cccc(-c2cc(C(=O)Nc3c(C)nn(Cc4ccccc4)c3C)no2)c1		inconclusive: 10.4 µM [inhibitor, single point]
C=CCSc1ncc(CO)n1Cc1ccccc1	inactive: 3.98%	
CC(=O)O[C@H]1C[C@H](O[C@H]2[C@@H](O)CC(O[C@H]3[C@@H](O)C[C@H](O[C@H]4CC[C@@]5(C)[C@H](CC[C@@H]6[C@@H]5CC[C@]5(C)[C@@H](C7=CC(=O)OC7)CC[C@]65O)C4)O[C@@H]3C)O[C@@H]2C)O[C@H](C)[C@H]1O[C@@H]1O[C@H](CO)[C@@H](O)[C@H](O)[C@H]1O (stereo not given in full)		inconclusive: 6.01 µM [inhibitor, partial curve]
CCN(Cc1ccncc1)Cc1nc(-c2ccc(C(=O)OC)cc2)no1	inactive: 6.38%	
N#Cc1cc(-c2ccccc2)c[nH]c1=O	inactive: 6.63%	
CN(CC(O)COCc1ccccc1F)C1CCCCC1 (stereo not given)	inactive: 21.8%	
O=S(=O)(Nc1nc2ccccc2nc1NCCN1CCOCC1)c1cccc(Cl)c1		inconclusive: 18.5 µM [inhibitor, single point]

SMILES	activity change, negative = inhibition	Potency
O=C(CSc1nc2ccccc2s1)N/N=C/c1ccc(C(=O)O)cc1	inactive: 17.3%	
CCC(=O)c1ccc(NC(C)=O)cc1O		inconclusive: 4.15 µM [inhibitor, single point]
CCCN(CCC)CC(O)COc1ccc([N+](=O)[O-])cc1 (stereo not given)		inconclusive: 1.17 µM [inhibitor, partial curve, poor fit]
Cc1nc(SCc2ccccc2)c2oc3ccccc3c2n1		inconclusive: 11.7 µM [inhibitor, partial curve]
COC(=O)CCc1c(COC(C)=O)[nH]c(C(=O)OCc2ccccc2)c1C		inconclusive: 0.37 µM [inhibitor, partial curve, poor fit]
O=C(CN1C(=O)NC2(CCCc3ccccc32)C1=O)NC1CCCCC1 (stereo not given)	inactive: 0.9%	
CN(Cc1ccccc1Br)C(=O)CN1C(=O)NC2(CCCCCC2)C1=O		inconclusive: 8.28 µM [inhibitor, partial curve, poor fit]
Cc1ccc(N(Cc2cc3ccc(C)cc3[nH]c2=O)C(=O)c2cccs2)cc1		inconclusive: 13.1 µM [inhibitor, single point]
CCCCn1c(N)c(N(CCOC)C(=O)c2ccc(-c3cccc(C(F)(F)F)c3)o2)c(=O)[nH]c1=O		active: 13.1 µM
Cc1ccc2nc(SCC(=O)Nc3cc(C(C)(C)C)nn3-c3ccccc3)[nH]c2c1		inconclusive: 18.5 µM [inhibitor, single point]
COc1ccccc1NC(=O)COC(=O)c1cnccn1	inactive: 9.53%	
CC(=O)c1c(NCc2ccccc2)nc(=O)n(-c2ccccc2)c1C	inactive: 27.5%	
CC(C)C(=O)Nc1ccc(Oc2ccc3c(c2)C(=O)NC3=O)cc1	inactive: 30.7%	
Cc1cc(C(=O)Nc2ccc(S(=O)(=O)N3CCCC3)cc2)no1		inconclusive: 14.7 µM [inhibitor, partial curve, poor fit]
O=C(C(Cl)Cl)N1c2ccccc2OCC1c1ccccc1 (stereo not given)		inconclusive: 13.1 µM [inhibitor, single point]
Cc1ccc(C)n1-c1cccc(S(=O)(=O)N2CCOCC2)c1		inconclusive: 18.5 µM [inhibitor, single point]
COc1ccccc1NC(=O)NCc1ccc(C)n1C		inconclusive: 18.5 µM [inhibitor, partial curve, poor fit]
O=C(Nc1ccc(S(=O)(=O)N2CCOCC2)cc1)c1cccs1	inactive: -26.2%	
CCCn1nc(C(=O)Nc2ccc(S(=O)(=O)Nc3nccs3)cc2)c2ccccc2c1=O		inconclusive: 14.7 µM [inhibitor, single point]
CCOc1ccc(S(=O)(=O)N(C(=O)c2ccco2)c2cc3sc(=O)oc3c3ccccc23)cc1		inconclusive: 10.4 µM [inhibitor, partial curve, poor fit]
Cc1cc(=O)n2nc(N3CCCC(C(=O)NCc4ccc(Cl)cc4)C3)sc2n1 (stereo not given)	inactive: -7.33%	
Cc1cc(C)n2nc(SCC(=O)N(CCC#N)c3ccc(F)cc3)nc2n1	inactive: 26.8%	

— PubChem BioAssay AID504832 (National Center for Advancing Translational Sciences (NCATS), 2011)
